In PubChem BioAssay AID463173 (ICCB-Longwood Screening Facility, Harvard Medical School, 2010):
Among all 52,000 compounds or so, about 4,300 (8.3%) were called active. Rule as the data show it: active = survival mostly below about 52% (no sharp cut-off); inactive = mostly above about 56%. The list shows a part of the results.

test system: DeltatarO mutant; test: S. aureus survival, RN4220 and DeltatarO strains – OD600, teichoic acid synthesis inhibitors, primary screen (AID 463173); conditions: S. aureus RN4220 wild type/DeltatarO growth, OD600, 18 h, active compounds read low, screened at 18.75 µg/mL (by protocol)

| SMILES | survival |
| --- | --- |
| COc1ccc(NC(=O)C2=C(C)Nc3nc(SCc4ccccc4C)nn3C2c2cc(OC)c(O)c(OC)c2)cc1 (stereo not given) | inactive: 89% |
| Cc1ccc(-n2ncc(C(=O)NCc3cccs3)c2C2CCN(C(=O)OC(C)(C)C)CC2)c(C)c1 | inactive: 101% |
| CCC(Sc1nc2cc(OC)c(OC)cc2c2nc(-c3ccccc3)nn12)C(=O)Nc1cccc(C)c1 (stereo not given) | inactive: 80% |
| O=C(NCc1ccccc1Cl)c1ccc(CSCc2ccccc2Cl)o1 | inactive: 93% |
| COc1ccc(OC)c(NC(=O)CSc2nnc3ccc4ccccc4n23)c1 | inactive: 57% |
| Cc1ccc(CSc2nnc(CCNC(=O)OC(C)(C)C)o2)cc1 | inactive: 120% |
| COc1cc2cc(CNc3ccc(C)cc3)c(=O)n(CC(=O)Nc3ccc(F)cc3F)c2cc1OC | inactive: 83% |
| CCOC(=O)c1c(C)[nH]c(CCC(=O)Nc2ccc(C)c(F)c2)c1C | inactive: 101% |
| CC(C)NC(=O)CN1C(=O)COc2ccc(S(=O)(=O)N3CCCCCC3)cc21 | inactive: 77% |
| COc1cc(C(=O)NCC(c2cccs2)S(=O)(=O)c2ccc(F)cc2)cc(OC)c1OC (stereo not given) | inactive: 104% |
| Cc1cccc(OCC(=O)Nc2ccc(Cl)c(-c3nc4ncccc4o3)c2)c1C | inactive: 62% |
| Cc1ccccc1Oc1ccc(-c2nc(N)nc(N)n2)cc1 | inactive: 81% |
| O=C(CSC1=NCCS1)NCc1ccco1 | inactive: 95% |
| Cc1cccc(NC(=O)c2nnn(CC(=O)Nc3ccc(C(C)C)cc3)c2N)c1C | inactive: 93% |
| COc1ccc(-c2cc(C(=O)OC(C)C(=O)c3ccccc3)c3cccc(Cl)c3n2)cc1 (stereo not given) | inactive: 76% |
| c1ccc(Nc2c(-c3c[nH]c4ccccc34)nc3ccccn23)cc1 | active: 54% |
| CC(C)Nc1ccc(-c2nc(-c3ccco3)no2)cc1[N+](=O)[O-] | inactive: 107% |
| Cc1ccc(C2c3[nH]c4ccccc4c3CCN2C(=O)c2cccc(C)c2)cc1 (stereo not given) | inactive: 124% |
| Cc1ccc2nc(N3CCC(C(=O)N4CCN(c5cccc(Cl)c5)CC4)CC3)[nH]c2c1 | inactive: 68% |
| CCOCCCNC(=O)C(c1ccc(C)cc1)N(Cc1ccc2c(c1)OCO2)C(=O)c1ccc(NC(C)=O)cc1 (stereo not given) | inactive: 51% |
| CCC(C)NC(=O)c1ccccc1NC(=O)CN1C(=O)c2cccc3cccc1c23 (stereo not given) | inactive: 50% |
| Cc1ccc(NC(=O)CCc2nnc3n(C)c(=O)c4sccc4n23)cc1C | inactive: 70% |
| CSC1=NC2(CCN(C(=O)NC3CCCCC3)CC2)N=C1c1ccc(C)c(C)c1 | inactive: 81% |

| SMILES | survival |
| --- | --- |
| Cc1ccc(CNC(=O)CC(C)S(=O)(=O)c2cc3c(cc2C)NC(=O)CO3)cc1 (stereo not given) | inactive: 89% |
| CC(C)Oc1ccc(C(=O)N(Cc2ccco2)c2ccccn2)cc1 | inactive: 60% |
| Cc1ccc(C)c(NC(=O)CN2C(=O)C(C)(C)c3ccccc32)c1 | inactive: 74% |
| O=C(Nc1sc2c(c1C(=O)NCc1ccco1)CCCC2)c1cc(=O)c2ccccc2o1 | active: 43% |
| COc1ccc(Br)cc1CNC(=O)c1cc2n(n1)CCCN(Cc1ccc(C)cc1)C2=O | inactive: 102% |
| CCC(=O)N1CCc2cc(Br)cc(S(=O)(=O)CCC(=O)NCc3ccc(Cl)cc3)c21 | inactive: 78% |
| Cc1nc(Oc2ccc(F)cc2Cl)c2oc3ccccc3c2n1 | inactive: 70% |
| CCOC(=O)Cc1nn(Cc2ccccc2)c(=O)c2ccccc12 | inactive: 67% |
| CCOc1ccccc1NC(=O)CN(C)S(=O)(=O)c1ccc2nc(C)sc2c1 | inactive: 97% |
| O=C(NCc1ccco1)c1ccc2c(c1)N(Cc1ccc(Cl)cc1)C(=O)c1ccccc1S2=O (stereo not given) | inactive: 116% |
| Cc1ccc(NC(=O)Nc2ccc3snnc3c2)cc1C | inactive: 66% |
| CNC(=S)N(Cc1cccnc1)Cc1cc2cc(OC)ccc2[nH]c1=O | inactive: 91% |
| CCN(C(=O)C1CCCN(S(=O)(=O)c2c(C)noc2/C=C/N(C)C)C1)c1cccc(C)c1 (stereo not given) | inactive: 73% |
| CCN(c1ccccc1)c1nnc(NC(=O)Nc2ccccc2F)s1 | inactive: 105% |
| CCc1ccc(CN(Cc2ccco2)c2cnc(S(C)(=O)=O)nc2C(=O)Nc2ccccc2Cl)cc1 | inactive: 101% |
| CC(NC1CCCC1)c1ccccc1 (stereo not given) | inactive: 84% |
| Cc1cccc(OCC(=O)N2CCc3ccccc32)c1 | inactive: 87% |
| CN1C(=O)CC(NCCc2ccc(S(N)(=O)=O)cc2)C1=O (stereo not given) | inactive: 72% |
| COC(=O)c1scc(-c2ccc(C)cc2)c1S(=O)(=O)N1CCN(c2cccc(OC)c2)CC1 | inactive: 54% |
| CCc1nnc(SC(CC)C(=O)Nc2cccc(OC)c2)c2cc3oc(C)cc3n12 (stereo not given) | inactive: 70% |
| Cc1ccc(Sc2c(C)nn(C(C)(C)C)c2OC(=O)C(C)(C)C)cc1 | active: -10% |
| Fc1ccc(Nc2c3c(nc4ccccc24)CCC3)cc1 | inactive: 69% |
